We go through four molecules from publication PMC3065485.

For the test, the target named is T1, Hmt1-HA (S. cerevisiae) (UniProt P38074).
T1 sequence: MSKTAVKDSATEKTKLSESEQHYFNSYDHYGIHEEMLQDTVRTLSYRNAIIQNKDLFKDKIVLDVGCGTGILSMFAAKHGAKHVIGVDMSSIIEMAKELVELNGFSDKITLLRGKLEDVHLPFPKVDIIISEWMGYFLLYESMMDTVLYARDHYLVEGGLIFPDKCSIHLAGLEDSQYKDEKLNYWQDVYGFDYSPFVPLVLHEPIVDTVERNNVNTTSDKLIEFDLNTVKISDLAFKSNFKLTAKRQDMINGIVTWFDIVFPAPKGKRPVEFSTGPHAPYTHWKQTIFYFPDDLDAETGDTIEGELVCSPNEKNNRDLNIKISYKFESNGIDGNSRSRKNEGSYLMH
Nature of the test: co-IP; α-HA immunoprecipitation of the HA-tagged protein (Hmt1-HA or Mlp1-HA) from 1 mg yeast whole-cell extract (10 mM Tris pH 8.0, 150 mM NaCl, 0.1% Nonidet P-40, 10% glycerol, 1 mM DTT), 4°C, Protein A agarose; α-Myc immunoblot for the Ccr4-Not subunit.

No constants are given. Whether binding was seen depends on the method and setting. In cells and extracts the contact can be indirect. Some results given as binding are weak or reduced against the parent protein; the word gives no strength. Where a sequence is shown, tags or fusion partners need not be part of it.

B1: Caf1-Myc (protein, UniProt P39008 1-433)
chain: MQSMNVQPRVLAVGGEQFFSQRQASEQHQQQNMGPQVYSPKVNRARMFPQGMPVNTINGSVNQEMNNAYLLKQKNEPLLTQQQQQQQQQQQPFNIGTPVSVASLPPGLNVLQQQQQQQQQQQQQQQGVGLNRPLASQLPKHLTNQSMPPIFLPPPNYLFVRDVWKSNLYSEFAVIRQLVSQYNHVSISTEFVGTLARPIGTFRSKVDYHYQTMRANVDFLNPIQLGLSLSDANGNKPDNGPSTWQFNFEFDPKKEIMSTESLELLRKSGINFEKHENLGIDVFEFSQLLMDSGLMMDDSVTWITYHAAYDLGFLINILMNDSMPNNKEDFEWWVHQYMPNFYDLNLVYKIIQEFKNPQLQQSSQQQQQQQYSLTTLADELGLPRFSIFTTTGGQSLLMLLSFCQLSKLSMHKFPNGTDFAKYQGVIYGIDGDQ
In the case of B1, the binding entry was “binds”.

B2: Ccr4-Myc (protein, UniProt P31384 1-837)
chain: MNDPSLLGYPNVGPQQQQQQQQQQHAGLLGKGTPNALQQQLHMNQLTGIPPPGLMNNSDVHTSSNNNSRQLLDQLANGNANMLNMNMDNNNNNNNNNNNNNNNGGGSGVMMNASTAAVNSIGMVPTVGTPVNINVNASNPLLHPHLDDPSLLNNPIWKLQLHLAAVSAQSLGQPNIYARQNAMKKYLATQQAQQAQQQAQQQAQQQVPGPFGPGPQAAPPALQPTDFQQSHIAEASKSLVDCTKQALMEMADTLTDSKTAKKQQPTGDSTPSGTATNSAVSTPLTPKIELFANGKDEANQALLQHKKLSQYSIDEDDDIENRMVMPKDSKYDDQLWHALDLSNLQIFNISANIFKYDFLTRLYLNGNSLTELPAEIKNLSNLRVLDLSHNRLTSLPAELGSCFQLKYFYFFDNMVTTLPWEFGNLCNLQFLGVEGNPLEKQFLKILTEKSVTGLIFYLRDNRPEIPLPHERRFIEINTDGEPQREYDSLQQSTEHLATDLAKRTFTVLSYNTLCQHYATPKMYRYTPSWALSWDYRRNKLKEQILSYDSDLLCLQEVESKTFEEYWVPLLDKHGYTGIFHAKARAKTMHSKDSKKVDGCCIFFKRDQFKLITKDAMDFSGAWMKHKKFQRTEDYLNRAMNKDNVALFLKLQHIPSGDTIWAVTTHLHWDPKFNDVKTFQVGVLLDHLETLLKEETSHNFRQDIKKFPVLICGDFNSYINSAVYELINTGRVQIHQEGNGRDFGYMSEKNFSHNLALKSSYNCIGELPFTNFTPSFTDVIDYIWFSTHALRVRGLLGEVDPEYVSKFIGFPNDKFPSDHIPLLARFEFMKTNTGSKKV
Take B2: the binding entry is listed as “binds”.

B3: Not2-Myc (protein, UniProt P06100 1-191)
chain: MEKFGLKALVPLLKLEDKELSSTYDHSMTLGADLSSMLYSLGIPRDSQDHRVLDTFQSPWAETSRSEVEPRFFTPESFTNIPGVLQSTVTPPCFNSIQNDQQRVALFQDETLFFLFYKHPGTVIQELTYLELRKRNWRYHKTLKAWLTKDPMMEPIVSADGLSERGSYVFFDPQRWEKCQRDFLLFYNAIM
For the molecule B3, the binding result was “binds weakly”.

B4: Not5-Myc (protein, UniProt Q12514 1-560)
chain: MSQRKLQQDIDKLLKKVKEGIEDFDDIYEKFQSTDPSNSSHREKLESDLKREIKKLQKHRDQIKTWLSKEDVKDKQSVLMTNRRLIENGMERFKSVEKLMKTKQFSKEALTNPDIIKDPKELKKRDQVLFIHDCLDELQKQLEQYEAQENEEQTERHEFHIANLENILKKLQNNEMDPEPVEEFQDDIKYYVENNDDPDFIEYDTIYEDMGCEIQPSSSNNEAPKEGNNQTSLSSIRSSKKQERSPKKKAPQRDVSISDRATTPIAPGVESASQSISSTPTPVSTDTPLHTVKDDSIKFDNSTLGTPTTHVSMKKKESENDSEQQLNFPPDRTDEIRKTIQHDVETNAAFQNPLFNDELKYWLDSKRYLMQPLQEMSPKMVSQLESSLLNCPDSLDADSPCLYTKPLSLPHPTSIFFPNEPIRFVYPYDVPLNLTNNENDTDNKFGKDSKAKSKKDDDIYSRTSLARIFMKFDLDTLFFIFYHYQGSYEQFLAARELFKNRNWLFNKVDRCWYYKEIEKLPPGMGKSEEESWRYFDYKKSWLARRCGNDFVYNEEDFEKL
Consider B4, for which the binding entry is on record as “no binding”.
